From the BET-seq Pho4 binding data (Le et al. 2018)
Some of the results follow. The energies were worked out here from pooled read counts, against the library average; single values are noisy.

biological target: T1, Pho4 (S. cerevisiae) (UniProt P07270); assay: relative binding free energy (BET-seq); higher = weaker binding; settings: reference: library average
T1 sequence: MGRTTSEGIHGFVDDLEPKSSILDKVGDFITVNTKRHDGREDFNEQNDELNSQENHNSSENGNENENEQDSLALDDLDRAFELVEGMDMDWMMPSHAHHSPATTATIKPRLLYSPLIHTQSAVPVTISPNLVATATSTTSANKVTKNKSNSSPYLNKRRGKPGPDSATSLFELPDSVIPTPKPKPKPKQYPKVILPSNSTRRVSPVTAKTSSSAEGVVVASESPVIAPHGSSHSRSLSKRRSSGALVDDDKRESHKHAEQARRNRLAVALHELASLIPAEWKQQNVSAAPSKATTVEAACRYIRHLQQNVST

| Sequence | relative binding free energy [kcal/mol] |
| --- | --- |
| GATGTCACGTGTTAGC | 0.22 |
| TGTCCCACGTGGGCGG | -0.18 |
| GGTGGCACGTGTTTTA | 0.06 |
| TAATTCACGTGGGGAA | 0.21 |
| TTATGCACGTGGTGGA | -0.01 |
| TATCTCACGTGTGTTG | 0.19 |
| GGTTACACGTGTCTAG | 0.15 |
| TAAAGCACGTGGGTTT | -0.13 |
| GAGGGCACGTGGTTGT | -0.04 |
| TATAGCACGTGTGAGT | 0.06 |
| TTTGTCACGTGGTACT | 0.05 |
| TGGTCCACGTGGCGGA | -0.09 |
| CGTCGCACGTGGTGTT | -0.22 |
| GTTTGCACGTGGTTAC | 0.07 |
| ATAGGCACGTGCTTTG | -0.23 |
| GTTTTCACGTGTTACA | 0.37 |
| GTGGGCACGTGGGACT | -0.08 |
| AGGGACACGTGGTATC | 0.04 |
| AGGGTCACGTGCGAAG | -0.01 |
| GGTTACACGTGGTGAT | 0.01 |
| GTCTGCACGTGGTGCG | -0.1 |
| GAGCGCACGTGTGGTA | -0.03 |
| TCTAGCACGTGTGGCG | 0.06 |

| Sequence | relative binding free energy [kcal/mol] |
| --- | --- |
| AGTAACACGTGGAGTG | 0.04 |
| GAAAGCACGTGGGGAG | -0.15 |
| GCTGTCACGTGGTTAG | 0.09 |
| GGTCTCACGTGGGGTT | 0.1 |
| TGTGGCACGTGGCTAG | -0.14 |
| TCATTCACGTGTTTGG | 0.27 |
| GTTTACACGTGGGCCG | 0.19 |
| GTAAGCACGTGATAGT | 0.08 |
| AGCTTCACGTGGGGAA | 0.23 |
| CAGTGCACGTGGTCTG | -0.14 |
| TTACGCACGTGATTGT | 0.01 |
| GTGGGCACGTGATAGC | -0.06 |
| CGGTTCACGTGGTAAG | 0.17 |
| CTGTGCACGTGCCTGG | -0.07 |
| TAGTACACGTGTGTAT | 0.04 |
| CAATGCACGTGGGGTG | -0.12 |
| ATGGTCACGTGCTTAA | 0.14 |
| GGACACACGTGTGGGT | 0.16 |
| GGGGTCACGTGGTACT | 0.1 |
| GGGGGCACGTGTTGCC | -0.02 |
| ATGTACACGTGCGGGG | 0.02 |
| GTTTACACGTGGTCGA | 0.21 |
| TATTTCACGTGAATTT | 0.38 |

| Sequence | relative binding free energy [kcal/mol] |
| --- | --- |
| AGTTGCACGTGCTGCT | -0.02 |
| AAGGTCACGTGTATCT | 0.11 |
| GATAGCACGTGCGGGT | -0.05 |
| TTTGCCACGTGTTGGA | 0.04 |
| TTAGTCACGTGTGGGA | 0.19 |
| GATGACACGTGGTGAA | 0.12 |
| TTAGCCACGTGGTTTA | -0.06 |
| TATGGCACGTGACTGT | 0 |
| GTTGGCACGTGTCTGT | 0.03 |
| TAGCGCACGTGTGTGT | 0.12 |
| TATTTCACGTGTATTG | 0.15 |
| CGTCACACGTGTTAGG | 0.21 |
| TGTGTCACGTGAGCAT | 0.22 |
| AGTTTCACGTGGACTT | 0.32 |
| GGATGCACGTGGGACG | 0.07 |
| CGTTTCACGTGCGAGG | 0.3 |
| TGAGGCACGTGAGAGC | 0.08 |
| ATTTGCACGTGCCTGT | -0.11 |
| TTTAGCACGTGGATCA | -0.05 |
| TTGGGCACGTGTGGTC | 0.07 |
| TGGGTCACGTGAATTT | 0.37 |
| AAATGCACGTGAGTAG | 0.12 |
| TGAGTCACGTGACTGT | 0.21 |

| Sequence | relative binding free energy [kcal/mol] |
| --- | --- |
| AGGAGCACGTGAAGTA | 0.24 |
| TGATACACGTGAAAGG | 0.35 |
| GGTCTCACGTGGTTGC | 0.32 |
| GCACGCACGTGGGTGT | -0.23 |
| GGGTGCACGTGGGCGC | -0.12 |
| TGAAGCACGTGGTGGC | -0.2 |
| AATATCACGTGTTGTA | 0.16 |
| TGTGGCACGTGGTTAT | -0.16 |
| GGGTACACGTGGGCAT | -0.03 |
| GTGATCACGTGATATG | 0.14 |
| GTATACACGTGGTGTA | 0.04 |
| GGGCACACGTGATGGA | 0.28 |
| TTGTTCACGTGTCGAC | 0.35 |
| CAGGGCACGTGCAGTT | -0.08 |
| GTATTCACGTGAGTGC | 0.34 |
| GTTTACACGTGGGGAA | 0.03 |
| AGTAGCACGTGTGTTA | 0.02 |
| CTTGTCACGTGCGGGA | -0.03 |
| AATGGCACGTGGAAAT | 0.14 |
| CTTAGCACGTGGGGGT | -0.28 |
| TTAGTCACGTGAGTGC | 0.36 |
| CTGATCACGTGTGTTG | 0.11 |
| TATTGCACGTGGTTTT | -0.02 |

| Sequence | relative binding free energy [kcal/mol] |
| --- | --- |
| GTGTTCACGTGCGATG | 0.28 |
| GGAGACACGTGCGTGG | -0.1 |
| AGATTCACGTGCGGTG | 0.19 |
| GGTGGCACGTGGAGCG | 0 |
| TATCTCACGTGAGTTT | 0.24 |
| AGGTGCACGTGCGATG | -0.07 |
| GTGAGCACGTGCGCGT | -0.22 |
| ATCTACACGTGGTGGT | 0.07 |
| GCGGTCACGTGGCGAG | 0.08 |
| TATTACACGTGATGGC | 0.34 |
| TATGGCACGTGGGGAT | -0.18 |
| CGGTTCACGTGGGAGT | 0.18 |
| GGGGTCACGTGCTCGT | 0.07 |
| ATTGTCACGTGGAAGT | 0.19 |
| ATCTTCACGTGTAGTT | 0.24 |
| TGGTACACGTGTGTAC | 0.05 |
| GTGTTCACGTGTGACT | 0.2 |
| TCGCTCACGTGGGTTT | 0.15 |
| TTGTGCACGTGATTTC | 0.1 |
| ATCATCACGTGTTTGT | 0.14 |
| AGCGGCACGTGTTGGA | 0.02 |
| AGGGTCACGTGTTTGC | 0.03 |
| ATTGGCACGTGTAATG | -0.01 |
